# Data published in the supplement of paper PMC11417369.
# The list shows a part of the results.
# Test system: PfHDP1 homeodomain (GST-tagged)
# Assay: gcPBM binding intensity (ln(normalized median fluorescence intensity)); higher = stronger DNA binding
# Outline: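 GST-fused DNA-binding domains of P. falciparum, expressed in E. coli, were applied at about 25 μg on average for 1 h to an Agilent 4 × 180k array of primer-extended double-stranded 36-bp intergenic genomic probes and negative controls. Binding intensity is the highest Masliner-normalised natural-log median intensity across replicate spots of either probe orientation, measured with Alexa488 anti-GST antibody and a 488 nm scan.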
row,Sequence,gcPBM binding intensity (ln)
1,AAGGTTTTGGGTTTTAATTAATTTAATATGATTATA [XGTACX_negctrl_site147],6.56
2,TAATATTAAAAAGAGACACACAAAAATATTAAAAAA [CACACA_site3120],6.71
3,TTACACCTTAGGATCTGTACAAATATATGACAAATC [XGTACX_site4333],6.34
4,ATATTAAATATATACAGTACACATTACAATACAATA [XGTACX_site3221],6.65
5,CTTTGTAGTTGGTCCACACACATATCTGGAAGAATA [CACACA_site4834],6.36
6,TTTCAACTTTTGTCATGTACACATAATTTTATTGCA [XGTACX_site6701],6.87
7,ATTTATTTATCAAATATTATCTTAAAAAAAAAAGAA [CACACA_negctrl_site1345],6.28
8,TGTATAACCATAAATTGTACAGAAAAAAGTATAAAA [XGTACX_site1493],6.33
9,ATGTGTATATGTTAATGTACAAATTTTGAAAATGCC [XGTACX_site2685],7.02
10,TTAAAAAATATATACGTTGATATAATACAACTTGAC [CACACA_negctrl_site1551],6.28
11,TATATATGCATTAAAGTGTTTTTTTTTTTTTTTTTT [CACACA_negctrl_site1353],6.63
12,ATTTTTTTTTTTTATGGTACACACACGCGTATGGTT [XGTACX_site3888],6.52
13,AACAAAAGAAAAAAATATATATATTCGTCCTATTTT [CACACA_negctrl_site444],6.22
14,CATCTGGTATCTAATAGTACATATATATAATATCTT [XGTACX_site2774],6.46
15,ATGTATTACTTAAATATATGAAACATATTACTTTTA [CACACA_negctrl_site496],5.97
16,TCATATTCCAAAAAAAAAAAAAAAAAAAAAAAAATA [CACACA_negctrl_site1293],5.82
17,AATATATATATATTATGTACACATAGAAATATATTA [XGTACX_site3874],6.44
18,CTTTCAAAATTATTTATAGTATCTCATATTTTAGTA [XGTACX_negctrl_site72],6.03
19,ATCCTTTATAAATAAGTGCATATAAAAAATAATATT [GTGCAC_site9759],8.84
20,ACACATATGTATATATGTACTTATATATATATATAT [XGTACX_site8632],9.2
21,TTTATTAATAAAAAGGTGCAATCAGGAAAAATTATC [GTGCAC_site9626],8.47
22,ATAATAAATTCTACGCGTACAAAACCATGAACATTA [XGTACX_site7505],6.52

row,Sequence,gcPBM binding intensity (ln)
1,TTTTAGCTATTTTAATATAATGAAGCAAAAAATAAA [TGCATGCA_negctrl_site576],6.52
2,ACCTACATACATATGTGTACTTATTTGTATTCACTG [XGTACX_site7124],6.94
3,ATAATATATGAAAAAACGATTTTTTCATTTTAAATA [XGTACX_negctrl_site146],6.35
4,TTTATAAACAAATGAACACACAAACATATTTATATA [CACACA_site7478],6.67
5,CACACGTAAAAGTATAATATAAAAAAGGTATACACT [CACACA_negctrl_site127],6.56
6,TATTTAAAGATATATACACACATTTGATATTATTAT [CACACA_site6509],6.54
7,CATACATACAAACACACACACATATAAATACATACA [CACACA_site4625],6.85
8,AAAAAAAAAAAAAAAACACACATATCTGTATTTATA [CACACA_site5760],6.67
9,ACATTGTTGGTGTTAGTGCATTGGTAAATATTATAT,8.23
10,ATAGTATATCAAAATTTGTAAATCATTCTCAATAAA [CACACA_negctrl_site430],5.94
11,AAAAAAAAAATTTTCGTGCACATAAGAAAATTTAAA [GTGCAC_site9788],9.87
12,TATATATTATATATTTGTACATATATATAAAAACTT [XGTACX_site449],6.54
13,CCTTCCTTGAATTTTACATGCAAAAAATTATAAAAC [TGCATGCA_site663],6.88
14,TTTTTTCAATATTATATCCAAAAATATTTGTAAATA [TGCATGCA_negctrl_site596],5.71
15,TTATTAAAATATACATTTGAAAGTAATCTTATTTAA [XGTACX_negctrl_site431],6.11
16,TATAAAAAAATAATAAAATAATAAAATATATAAATA [TGCATGCA_negctrl_site394],6.28
17,ATTCTATTATCCTTTGCACACAAAATAAATGAAAAA [CACACA_site3030],9.63
18,TTTTAAAAGGTAAAATGTACATATATAATATATACA [XGTACX_site1222],6.22
19,TATTTTACATAAAAGAAAAAAAAAAAAAAAAAAAAA [CACACA_negctrl_site1460],6.13
20,ATATTGAAAATTTGAAGTACATCTAAATATATTATT [XGTACX_site7817],6.24
21,TTTATAATAAAAAATACATGCAGTTATATATAATAA [TGCATGCA_site654],6.75
22,ATAATGTGTTTGGTATTCTTGATAGATAGTTTTGTG [CACACA_negctrl_site68],6.66

row,Sequence,gcPBM binding intensity (ln)
1,ATCCGTGTCTGAAATACACACATGACAATGTGAATG [CACACA_site6556],6.45
2,TATATATAAATAAACACACACAAATATAATAAAAAA [CACACA_site3526],6.99
3,TATTTAAATACTGACGCATGCATAAGGAGTAATAGT [TGCATGCA_site465],7.62
4,AAACATTTATGAAGGTGTACAAAAATGAATTAAAAA [XGTACX_site7035],6.55
5,TTTTGTTTAGTGTATTGTACAATATATCTTTATTTT [XGTACX_site5163],6.52
6,AGTCCTTACACATATATTAAATATGTGTATATATAT [XGTACX_negctrl_site336],7.17
7,TATTAATACGGACACACACACACACTAGATAAAATA [CACACA_site4295],7.02
8,AAAAAAAAAAAAAAAAGTACATATATATATATAATT [XGTACX_site4437],6.1
9,TAATACTTAGAGAAAAGTACGTATGAACTTATGTAA [XGTACX_site5504],6.24
10,TTTTTTTTTTTTTTTTGTACTTATAAAATAACATGT [XGTACX_site134],6.18
11,TTTTAAAGCATATCATATAAAGAACATGACATAGGA [CACACA_negctrl_site630],6.27
12,AACATTTTTAAATATATAAAAATATATATATATATA [XGTACX_negctrl_site551],9
13,TTATATTTATGATACACACACGTATATTCACATACA [CACACA_site6354],6.81
14,GTATGTTTAATTTTAGTGCAATTATAAATATTTTAA [GTGCAC_site9531],9.52
15,AAGAAAATAAAATAAAAAAAAAAATAAAAAAAATAA [TGCATGCA_negctrl_site516],6.18
16,TCAATAGTTACTAGTACATGCAAAAATAAACCTATA [TGCATGCA_site85],6.88
17,CAAATATATATGTTCACACATATAATTATTGTGAAA [CACACA_site4190],6.4
18,TTGCCATTAATTTATACACACACATTTTAATTTTTT [CACACA_site8150],6.97
19,TTGTCATTTATAAAATGTACGTGTGTATATATTTAA [XGTACX_site5000],6.78
20,TACATTTTTATTTTTACACACATATATATATATATA [CACACA_site1021],9.47
21,CTATTAAAAAAATTATGTACACAACGTCTCTATATA [XGTACX_site4813],6.66
22,TTAAGTATTTTACGTACACACTTATAAATGTACAGG [CACACA_site6012],6.39

row,Sequence,gcPBM binding intensity (ln)
1,AAGTATTATTATAAGACACACATGTATATAAGTATA [CACACA_site1479],6.53
2,TATAATATATTTATATGTACTTATTTATTTATATAT [XGTACX_site6519],6.43
3,GAGTTTATTCTTTTTATACACACCTTATTTGATTAA [CACACA_site735],6.85
4,TATTATTTTATGAGACATAAAAAAAAAAAAAAAAAA [CACACA_negctrl_site1534],6.17
5,ATATATATATATATAGTGCATAATGTTTTAATAGAT,9.73
6,AAATTGTCTGCATATAGTACATAAATATATTAATAT [XGTACX_site4557],6.55
7,TCTTTATATATATATATATGTGTGAATGTTAAGTAT [XGTACX_negctrl_site135],6.97
8,ATTTTTTTTTTTTCCTTACACACATATTTCATTTTA [CACACA_site748],6.87
9,AGTAAAAGAAAGCACACACACATGTATATATGTATG [CACACA_site3858],6.47
10,CAATATAAAAAACACACGCACACAAAAAAAAAAAAA [CACACA_site3521],6.56
11,GTAATATTATATAGTTGTACTTTTTTTTTATTATAT [XGTACX_site483],6.76
12,ATATATAAAATATATTGTACATTAACATATATATTT [XGTACX_site2055],6.34
13,ATATATAAATAAATAGTGCATTTTAATATTTAACGT,8.86
14,AAACTTGACGGACACACACACACATATATAAAAAAA [CACACA_site4577],6.87
15,TAATCCATAAGAAGCACACACATATAAATATATTTT [CACACA_site6774],6.63
16,TTTAAATATTTTAACACACTCATATTTAGGTTACAA [CACACA_site5685],6.5
17,TCCATATATATTATGTGTACATATTATATATATAAA [XGTACX_site7525],6.46
18,TTTACATATTTATATACACACTTTTGCGTGTCTGGT [CACACA_site4750],6.6
19,TAGTACACACAAAATACATGCGGGGTTTAATATTTA [TGCATGCA_site576],6.96
20,AATTCTTTCATATATTGTACGTATTCCCATAAAATA [XGTACX_site5923],6.95
21,AAATGAATAAAATTTATTTATAAAAGAAAAATCACA [GTGCAC_negctrl_site225],6.43
